Test results taken from PubChem BioAssay AID504332 (National Center for Advancing Translational Sciences (NCATS), 2011).
The campaign covered roughly 350,000 compounds. About 31,000 (8.9%) were called active. The shares of active, inactive and inconclusive entries below differ from those in the screen. The call rests on the fitted dose curve; in most records, active means well fitted inhibition curve with a large enough effect; inconclusive means small, poorly fitted or top-dose-only effect; inactive means no such curve, though single readings can be large or run the other way. Where the call is inconclusive, the potency comes from a doubtful curve fit.

These compounds were tested against Histone-lysine N-methyltransferase EHMT2 (Homo sapiens) (UniProt Q96KQ7) (assay: qHTS Assay for Inhibitors of Histone Lysine Methyltransferase G9a). Conditions: G9a H3K9 monomethylation, AlphaScreen, 2 h; activity, negative = inhibition: at 59 µM (top of the series) unless noted.
Chain of UniProt Q96KQ7 (Q96KQ7 whole entry, looked up): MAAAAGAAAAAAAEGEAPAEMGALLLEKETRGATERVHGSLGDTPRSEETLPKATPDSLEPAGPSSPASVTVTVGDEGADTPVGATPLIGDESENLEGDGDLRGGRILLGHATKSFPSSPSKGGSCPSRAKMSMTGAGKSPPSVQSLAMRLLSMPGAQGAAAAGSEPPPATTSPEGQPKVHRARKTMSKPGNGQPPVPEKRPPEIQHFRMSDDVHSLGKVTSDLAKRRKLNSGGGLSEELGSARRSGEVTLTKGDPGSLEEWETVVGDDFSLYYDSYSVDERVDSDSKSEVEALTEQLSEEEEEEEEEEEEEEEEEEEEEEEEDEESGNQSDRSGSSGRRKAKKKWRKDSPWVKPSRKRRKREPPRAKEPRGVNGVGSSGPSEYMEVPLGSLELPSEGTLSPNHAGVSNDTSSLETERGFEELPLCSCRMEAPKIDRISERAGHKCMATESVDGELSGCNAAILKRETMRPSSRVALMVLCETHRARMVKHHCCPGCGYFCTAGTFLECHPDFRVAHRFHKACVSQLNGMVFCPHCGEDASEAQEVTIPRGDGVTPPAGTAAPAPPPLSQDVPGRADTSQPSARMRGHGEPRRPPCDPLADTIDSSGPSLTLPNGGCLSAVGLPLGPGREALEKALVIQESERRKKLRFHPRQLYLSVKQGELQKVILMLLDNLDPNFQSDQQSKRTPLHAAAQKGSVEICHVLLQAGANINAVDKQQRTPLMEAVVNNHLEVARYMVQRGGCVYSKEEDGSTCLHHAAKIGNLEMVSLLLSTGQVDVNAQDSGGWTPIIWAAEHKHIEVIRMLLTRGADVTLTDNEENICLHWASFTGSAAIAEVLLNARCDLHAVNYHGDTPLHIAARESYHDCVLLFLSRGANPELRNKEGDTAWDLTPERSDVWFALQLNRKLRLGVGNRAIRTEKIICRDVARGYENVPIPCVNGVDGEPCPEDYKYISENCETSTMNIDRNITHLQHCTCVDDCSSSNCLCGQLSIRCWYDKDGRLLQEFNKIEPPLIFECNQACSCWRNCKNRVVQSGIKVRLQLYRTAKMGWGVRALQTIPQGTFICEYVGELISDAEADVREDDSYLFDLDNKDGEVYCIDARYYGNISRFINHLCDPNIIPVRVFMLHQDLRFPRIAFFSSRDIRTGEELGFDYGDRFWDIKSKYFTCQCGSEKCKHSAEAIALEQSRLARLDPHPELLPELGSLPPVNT
In short: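 AlphaScreen read-out: biotin-H3K9 peptide (500 nM) methylation by 20 nM enzyme with 20 uM SAM, 2 h at room temperature after 15 min compound preincubation; anti-monomethyl H3K9 antibody plus donor/acceptor beads, 10 min dark.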
Further: nearly all actives have a fitted effect of over 75% in size.
On the % scale 0 is the no-effect control and ±100 the full control effect; potency means the concentration at half of the fitted maximal effect; tags describe the fitted curve by direction and shape.

Row | SMILES | Potency | activity, negative = inhibition
1 | CC(C)(C)c1ccc(C2C3=C(CCCC3=O)NC3=C2C(=O)c2ccccc23)cc1 (centres undefined) | active: 39.8 µM | –
2 | O=C(c1cc(=O)c2ccccc2o1)N1CCCc2ccccc21 | inconclusive: 89.1 µM [inhibitor, single point] | –
3 | O=C(CNS(=O)(=O)c1ccc(Cl)cc1)NNC(=O)c1cccnc1 | inconclusive: 8.91 µM [inhibitor, full curve, poor fit] | –
4 | Cc1ccc(C(=O)NNC(=O)CCC(=O)Nc2cccc(Cl)c2C)cc1 | inactive | –
5 | COc1ccccc1C1CCN(Cc2c(C)[nH]c3ccccc23)CC1 | inconclusive: 56.2 µM [inhibitor, partial curve, poor fit] | –
6 | Cn1cnc2c(=O)oc3ccc(S(=O)(=O)N4CCN(c5cccc(Cl)c5)CC4)cc3c21 | inactive | –
7 | COc1ccc(C(=O)Nc2ccccc2)cc1S(=O)(=O)Nc1cc(C)on1 | inconclusive: 7.94 µM [inhibitor, partial curve] | –
8 | CC(=O)c1cnc2c(C(=O)O)cnn2c1C | inconclusive: 10 µM [inhibitor, partial curve, poor fit] | –
9 | CCOc1ccc(N=C2C(=O)N(CN3CCOCC3)c3ccccc32)cc1 | inconclusive: 89.1 µM [inhibitor, single point] | –
10 | COc1ccc(CN(CC(=O)NC2CCCC2)C(=O)c2ccc(-c3ccccc3)[nH]2)cc1 | inconclusive: 35.5 µM [inhibitor, full curve] | –
11 | COc1ccc(NC(=O)CSc2nc(O)c(Cc3ccccc3)c(=O)[nH]2)cc1 | inconclusive: 50.1 µM [inhibitor, partial curve] | –
12 | COC(=O)c1cc2occc2n1Cc1nc(-c2ccc(C)cc2)oc1C | inactive | –
13 | Cc1ccc(C(=O)N2CC(=O)Nc3ccc(F)cc3C2c2ccccc2)cc1 (centres undefined) | inconclusive: 89.1 µM [inhibitor, partial curve, poor fit] | –
14 | CCOc1ccc(S(=O)(=O)N2CCN(C)CC2)c(C)c1C | inconclusive: 28.2 µM [inhibitor, single point] | –
15 | COc1ccc(C2Nc3ccccc3C(=O)N2c2ccccc2)cc1CN1CCOCC1 (centres undefined) | inconclusive: 89.1 µM [inhibitor, partial curve, poor fit] | –
16 | O=C(O)/C=C/C(=O)N(Cc1ccc2c(c1)OCO2)C1CC(=O)N(CCc2ccccc2)C1=O (centres undefined) | inconclusive: 39.8 µM [inhibitor, full curve] | –
17 | Cc1cc(C(=O)COc2nncc3ccccc23)c(C)n1C | active: 79.4 µM | –
18 | Cc1ccc(SCc2cc(=O)[nH]c(N3CCCCC3)n2)cc1 | inconclusive: 89.1 µM [inhibitor, single point] | –
19 | Cc1ccc(S(=O)(=O)N/N=C2/CC(c3ccccc3)Oc3ccccc32)cc1[N+](=O)[O-] (centres undefined) | active: 39.8 µM | –
20 | Cc1cccc(NC(=S)N=Nc2c(O)n(C)c3ccc(S(=O)(=O)N4CCOCC4)cc23)c1 | inconclusive: 56.2 µM [inhibitor, single point] | –
21 | COc1ccccc1CNC(=O)COC(=O)c1cnccn1 | inconclusive: 3.16 µM [inhibitor, partial curve, poor fit] | –
22 | CC(c1n[nH]c(=S)n1-c1ccc(Cl)cc1)N(C)C (centres undefined) | active: 8.91 µM | –

Row | SMILES | Potency | activity, negative = inhibition
23 | COc1ccc(/C=N/Nc2nc(-c3ccc(C)cc3)c(C#N)c(=O)[nH]2)cc1 | inconclusive: 89.1 µM [inhibitor, single point] | –
24 | Cc1onc(-c2ccccc2Cl)c1C(=O)NCc1cccs1 | inconclusive: 8.91 µM [inhibitor, single point] | –
25 | CSc1ccc(C2Nc3ccccc3-c3cc(C)nn32)cc1 (centres undefined) | inactive | –
26 | COc1ccc(CNCCSc2nnnn2C)c(OC)c1OC | inconclusive: 89.1 µM [inhibitor, partial curve, poor fit] | –
27 | O=C(c1ccc(S(=O)(=O)N2CCCC2)cc1)N1CCN(c2ccccc2F)CC1 | inactive | –
28 | O=C1[C@@H]2[C@H](Cc3ccc(O)cc3)N[C@]3(C(=O)Nc4ccccc43)[C@@H]2C(=O)N1c1ccc(F)cc1 | inconclusive: 89.1 µM [inhibitor, single point] | –
29 | Oc1ccccc1Nc1ncnc2c1oc1ccccc12 | inconclusive: 50.1 µM [inhibitor, partial curve, poor fit] | –
30 | O=C(CNC(=O)c1ccc(Br)cc1)NCCc1nc2ccccc2[nH]1 | inconclusive: 35.5 µM [inhibitor, partial curve, poor fit] | –
31 | Cc1ccc(NC(=S)NNc2ncc(C(F)(F)F)cc2Cl)cc1 | inconclusive: 28.2 µM [inhibitor, single point] | –
32 | Cc1ccc2nc(-c3ccc(NC(=O)COc4ccc(Cl)c(C)c4)cc3)sc2c1 | inconclusive: 8.91 µM [inhibitor, full curve] | –
33 | Cc1ccc(CCNC(=O)c2ccc(CSCc3ccccc3C)o2)cc1 | inactive | –
34 | O=C1C(Cl)=C(N2CCOCC2)C(=O)N1c1cccc(C(F)(F)F)c1 | active: 79.4 µM | –
35 | Cc1ccc(NC(/C=C/N(C)C)=C/C(=O)C(F)(F)F)c(C)c1 | inconclusive: 70.8 µM [inhibitor, single point] | –
36 | Cc1cc(C)c(C)c(OCCNCc2ccccc2)c1 | active: 11.2 µM | –
37 | CCOC(=O)c1c(NC(=O)CN(CC)CC)sc2c1CCC2 | inactive | –
38 | O=[N+]([O-])c1ccc(/C=N/N=C/c2ccc([N+](=O)[O-])o2)o1 | inconclusive: 79.4 µM [inhibitor, single point] | –
39 | COc1ccccc1N1C(=O)CC(Sc2ncccc2C(=O)O)C1=O (centres undefined) | inconclusive: 31.6 µM [inhibitor, single point] | –
40 | CCC(CC)c1nnc(NC(=O)c2ccco2)s1 | active: 44.7 µM | –
41 | CCOC(=O)C1CCN(CC(=O)c2ccc(O)c(C)c2O)CC1 | inconclusive: 39.8 µM [inhibitor, full curve] | –
42 | COC(=O)c1cnn2c(C(F)(F)F)cc(-c3ccco3)nc12 | inconclusive: 3.16 µM [inhibitor, partial curve, poor fit] | –
43 | Cc1nc2c(Cl)cccc2c2c1CC(CBr)O2 (centres undefined) | – | inactive: 13.3% [at 2.33 µM]
44 | Cc1ccc(NC(=O)c2cc(N3C(=O)CCC3=O)ccc2N2CCOCC2)cc1 | inactive | –
